The source of these data is patent US20250084178A1 (ARCUS BIOSCIENCES, published 2025).

For test [1], the target named is T1, soluble His-tagged human CD39 ECD protein (human, UniProt P49961 38-478).
T1 construct: also called human CD39 ECD His-tagged antigen; Sino Biological Cat. No. 16020-H08B
T1 sequence: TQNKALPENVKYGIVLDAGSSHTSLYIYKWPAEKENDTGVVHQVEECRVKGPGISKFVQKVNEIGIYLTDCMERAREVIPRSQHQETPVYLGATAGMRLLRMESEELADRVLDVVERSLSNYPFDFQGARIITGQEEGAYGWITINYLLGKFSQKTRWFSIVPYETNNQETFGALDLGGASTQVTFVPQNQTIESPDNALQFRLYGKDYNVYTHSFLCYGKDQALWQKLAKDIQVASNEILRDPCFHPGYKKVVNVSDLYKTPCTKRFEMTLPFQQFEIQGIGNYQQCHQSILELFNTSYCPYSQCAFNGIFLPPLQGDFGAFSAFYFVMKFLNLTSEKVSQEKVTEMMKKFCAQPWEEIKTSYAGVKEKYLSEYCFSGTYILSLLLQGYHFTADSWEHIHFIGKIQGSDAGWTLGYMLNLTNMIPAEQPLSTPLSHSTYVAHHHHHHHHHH
Put plainly: SPR (Biacore 8K), antibody captured via anti-human Fc, CD39 ECD analyte. A general note: SPR reads the build-up and loss of mass on a sensor chip optically.

The target of test [2] is T2, human CD39 expressed on the cell surface (human, UniProt P49961 1-510).
T2 construct: full-length human CD39 transfected into CHO-K1, or endogenous human CD39 on primary cells and cell lines, or human CD39 of knock-in mice; also called Human CD39-CHO-K1; cellular human CD39
T2 sequence: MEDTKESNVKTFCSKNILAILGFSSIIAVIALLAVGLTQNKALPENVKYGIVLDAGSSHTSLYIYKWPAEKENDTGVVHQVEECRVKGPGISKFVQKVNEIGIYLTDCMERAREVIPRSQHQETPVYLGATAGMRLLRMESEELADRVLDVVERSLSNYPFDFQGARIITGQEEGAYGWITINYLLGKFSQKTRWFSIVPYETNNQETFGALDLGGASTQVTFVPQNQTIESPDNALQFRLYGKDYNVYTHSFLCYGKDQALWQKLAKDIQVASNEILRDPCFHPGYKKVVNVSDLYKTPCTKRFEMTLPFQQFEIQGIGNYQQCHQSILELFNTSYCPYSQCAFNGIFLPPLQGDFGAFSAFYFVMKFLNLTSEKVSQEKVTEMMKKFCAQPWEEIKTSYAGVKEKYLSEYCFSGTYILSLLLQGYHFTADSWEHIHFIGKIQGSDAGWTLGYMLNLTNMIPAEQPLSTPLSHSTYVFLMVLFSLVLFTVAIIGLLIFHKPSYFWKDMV
Nature of the test: flow cytometry on purified human CD14+ monocytes, 0 uM ATP. For orientation: A flow cytometer gives signals particle by particle.

Test [3] concerns the target T2, human CD39 expressed on the cell surface. Put plainly: cell-based or functional assay.
Test [4] shares this target. Nature of the test: cell-based or functional assay. The source holds these as a separate data set.
Test [5] shares this target. Nature of the test: FACS on CHO-K1 cells overexpressing human CD39.
Test [6] shares this target. Nature of the test: flow cytometry on purified human CD14+ monocytes, 400 uM ATP.
For test [7], the target named is T1, soluble His-tagged human CD39 ECD …. Nature of the test: SPR (Biacore 8K), antibody captured via anti-human Fc, CD39 ECD analyte. This is another data set of the same source.
Test [8] concerns the target T2, human CD39 expressed on the cell surface. Nature of the test: cell-based or functional assay. The source holds these as a separate data set.
Test [9] deals with T3, cynomolgus monkey CD39 expressed on HEK-293 cells (cynomolgus monkey, UniProt P49961 5-510 (human entry)).
T3 construct: also called Cynomolgus Monkey CD39-HEK293
T3 chain: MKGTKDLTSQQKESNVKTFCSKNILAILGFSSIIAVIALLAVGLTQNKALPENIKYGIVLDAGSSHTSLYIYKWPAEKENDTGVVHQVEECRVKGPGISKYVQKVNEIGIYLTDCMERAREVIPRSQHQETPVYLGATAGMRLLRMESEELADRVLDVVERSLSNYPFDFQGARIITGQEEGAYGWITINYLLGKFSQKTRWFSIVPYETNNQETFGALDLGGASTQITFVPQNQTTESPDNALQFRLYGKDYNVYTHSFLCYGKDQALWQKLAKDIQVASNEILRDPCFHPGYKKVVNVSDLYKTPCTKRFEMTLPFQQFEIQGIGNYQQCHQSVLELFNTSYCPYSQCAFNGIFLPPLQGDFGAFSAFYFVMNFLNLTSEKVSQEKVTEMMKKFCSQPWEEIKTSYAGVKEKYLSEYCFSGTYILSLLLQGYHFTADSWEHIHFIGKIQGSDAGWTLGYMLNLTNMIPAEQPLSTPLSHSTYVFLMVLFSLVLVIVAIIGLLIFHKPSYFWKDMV
Nature of the test: FACS on HEK293 cells overexpressing cynomolgus CD39.

Test [10] addresses T2, human CD39 expressed on the cell surface. Nature of the test: cell-based or functional assay. This is another data set of the same source.
For test [11] the target is unchanged. Nature of the test: cell-based or functional assay. This is another data set of the same source.

Where two headings read alike, the source gives them in different places.

B1: hu39.3_IGG4.P (antibody, human IgG4 S228P, kappa)
heavy: EVQLVESGGGLVQPGRSLRLSCAASGFTFNNYGMNWVRQAPGKGLEWVSSFSSSSTYISYADTVKGRFTISRDNAKNSLYLQMNSLRAEDTALYYCARHGRYGGYGGFYFDYWGQGTMVTVSSASTKGPSVFPLAPCSRSTSESTAALGCLVKDYFPEPVTVSWNSGALTSGVHTFPAVLQSSGLYSLSSVVTVPSSSLGTKTYTCNVDHKPSNTKVDKRV[no letters for human IgG4 Fc with S228P (EU numbers)]
light: EIVMTQSPATLSVSPGERATLSCRASEGVKSYMHWYQQKPGQAPRLLIYKASNLASGIPARFSGSGSGTEFTLTISSLQSEDFAVYYCQQSWNDPTFGQGTKLELKRTVAAPSVFIFPPSDEQLKSGTASVVCLLNNFYPREAKVQWKVDNALQSGNSQESVTEQDSKDSTYSLSSTLTLSKADYEKHKVYACEVTHQGLSSPVTKSFNRGEC
notes: humanized variant of antibody 39 (VH1 + VL3), IgG4 (S228P)
Broadly, the Kd is the equilibrium constant for the complex coming apart. A word on the koff: it is the first-order rate constant of dissociation. The term kon denotes a measure of how fast the partners come together. In [1], B1 came in with a dissociation constant (Kd) of 254 pM, a koff of 0.000116 s⁻¹ and a kon of 455000 M⁻¹ s⁻¹.

B2: hu39.7_IGG4.P (antibody, human IgG4 S228P, kappa)
heavy: QVQLVESGGGVVQPGRSLRLSCAASGFTFNNYGMNWVRQAPGKGLEWVASFSSSSTYISYADTVKGRFTISRDNSKNTLYLQMSSLRAEDTAVYYCARHGRYGGYGGFYFDYWGQGTMVTVSSASTKGPSVFPLAPCSRSTSESTAALGCLVKDYFPEPVTVSWNSGALTSGVHTFPAVLQSSGLYSLSSVVTVPSSSLGTKTYTCNVDHKPSNTKVDKRV[no letters for human IgG4 Fc with S228P (EU numbers)]
light: ETVMTQSPATLSVSPGERATLSCRASEGVKSYMHWYQQKPGQAPRLLIYKASNLASGIPARFSGSGSGTEFTLTISSLQSEDFAVYYCQQSWNDPTFGQGTKLELKRTVAAPSVFIFPPSDEQLKSGTASVVCLLNNFYPREAKVQWKVDNALQSGNSQESVTEQDSKDSTYSLSSTLTLSKADYEKHKVYACEVTHQGLSSPVTKSFNRGEC
notes: humanized variant of antibody 39 (VH3 + VL3 with I2T), IgG4 (S228P)
A word on the EC50: it is the concentration at which the effect is half-maximal. As to B2, in [2], the EC50 was 5700 pM. In test [3], the “IC50, CD39 enzymatic inhibition on SK-MEL-5 cells, 20 uM ATP” value is 200 pM and the “Max Inhibition (%), SK-MEL-5 cells” value was 65%. In test [4], the “IC50, CD39 enzymatic inhibition on THP-1 cells, 20 uM ATP” value turned out to be 71 pM and the “Max Inhibition (%), THP-1 cells” value came out at 77%. For the same molecule, in test [5], the EC50 was found to be 460 pM. Also, the half-maximal effective concentration (EC50) in [6] came to 6900 pM. For the same molecule, in test [7], binding was put at a Kd of 191 pM, the off-rate constant (koff) came to 5.87e-05 s⁻¹ and the kon stood at 308000 M⁻¹ s⁻¹. Moreover, the “Human THP-1 CD39 inhibition IC50” value in test [8] is 80 pM. For the same molecule, the concentration giving a half-maximal response (EC50) in test [9] worked out at 110 pM. Also, in test [10], the “IC50, CD39 enzymatic inhibition on human monocytes, 400 uM ATP” value came to 390 pM and the “Max Inhibition (%), human monocytes, 400 uM ATP” value was 70%. In addition, in test [11], the “IC50, CD39 enzymatic inhibition on human monocytes, 20 uM ATP” value worked out at 200 pM and the “Max Inhibition (%), human monocytes, 20 uM ATP” value was determined as 70%.

B3: hu39.8_IGG4.P (antibody, human IgG4 S228P, kappa)
heavy: EVQLVESGGGLVQPGRSLRLSCAASGFTFNNYGMNWVRQAPGKGLEWVSSFSSSSTYISYADTVKGRFTISRDNAKNSLYLQMNSLRAEDTALYYCARHGRYGGYGGFYFDYWGQGTMVTVSSASTKGPSVFPLAPCSRSTSESTAALGCLVKDYFPEPVTVSWNSGALTSGVHTFPAVLQSSGLYSLSSVVTVPSSSLGTKTYTCNVDHKPSNTKVDKRV[no letters for human IgG4 Fc with S228P (EU numbers)]
light: ETVMTQSPATLSVSPGERATLSCRASEGVKSYMHWYQQKPGQAPRLLIYKASNLASGIPARFSGSGSGTEFTLTISSLQSEDFAVYYCQQSWNDPTFGQGTKLELKRTVAAPSVFIFPPSDEQLKSGTASVVCLLNNFYPREAKVQWKVDNALQSGNSQESVTEQDSKDSTYSLSSTLTLSKADYEKHKVYACEVTHQGLSSPVTKSFNRGEC
notes: humanized variant of antibody 39 (VH1 + VL3 with I2T), IgG4 (S228P)
In test [7], B3 came in with a Kd of 150 pM, a koff of 8.5e-05 s⁻¹ and a kon of 567000 M⁻¹ s⁻¹.

B4: hu39.6_IGG4.P (antibody, human IgG4 S228P, kappa)
heavy: QVQLVESGGGVVQPGRSLRLSCAASGFTFNNYGMNWVRQAPGKGLEWVASFSSSSTYISYADTVKGRFTISRDNSKNTLYLQMSSLRAEDTAVYYCARHGRYGGYGGFYFDYWGQGTMVTVSSASTKGPSVFPLAPCSRSTSESTAALGCLVKDYFPEPVTVSWNSGALTSGVHTFPAVLQSSGLYSLSSVVTVPSSSLGTKTYTCNVDHKPSNTKVDKRV[no letters for human IgG4 Fc with S228P (EU numbers)]
light: EIVMTQSPATLSVSPGERATLSCRASEGVKSYMHWYQQKPGQAPRLLIYKASNLASGIPARFSGSGSGTEFTLTISSLQSEDFAVYYCQQSWNDPTFGQGTKLELKRTVAAPSVFIFPPSDEQLKSGTASVVCLLNNFYPREAKVQWKVDNALQSGNSQESVTEQDSKDSTYSLSSTLTLSKADYEKHKVYACEVTHQGLSSPVTKSFNRGEC
notes: humanized variant of antibody 39 (VH3 + VL3), IgG4 (S228P)
Consider B4, for which, in [2], the response was half-maximal at 3500 pM (EC50). In test [3], the “IC50, CD39 enzymatic inhibition on SK-MEL-5 cells, 20 uM ATP” value amounted to 120 pM and the “Max Inhibition (%), SK-MEL-5 cells” value is 55%. Also, in [4], the “IC50, CD39 enzymatic inhibition on THP-1 cells, 20 uM ATP” value was found to be 58 pM and the “Max Inhibition (%), THP-1 cells” value amounted to 79%. Besides, it took 6500 pM to reach a half-maximal effect in test [6] (EC50). In test [1], this molecule yielded a Kd of 347 pM, a koff of 9.38e-05 s⁻¹ and a kon of 270000 M⁻¹ s⁻¹. In [10], the “IC50, CD39 enzymatic inhibition on human monocytes, 400 uM ATP” value came to 380 pM and the “Max Inhibition (%), human monocytes, 400 uM ATP” value came to 73%. Moreover, in test [11], the “IC50, CD39 enzymatic inhibition on human monocytes, 20 uM ATP” value came out at 210 pM and the “Max Inhibition (%), human monocytes, 20 uM ATP” value was 68%.
